Measured values from the supplement of paper PMC10126150.
Values marked as one replicate rest on one cluster of the flow cell; about a third of the high ones do not repeat.
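Also: ATP exposure 15 min at 22 °C before imaging.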

These sequences were tested on ATP (assay: switch fluorescence ratio, 500 uM ATP over buffer (Cy3 cluster intensity, sum of 5 cycles each) (fold (ratio)); higher = stronger signal-on switching upon ATP binding; sequences stand for … in TCGTCGGCAGCGTCAGATGTGTATAAGAGACAGTTTTTTTTTTTTTTTTTTTTTTTTT…TC). Details: aptamer strand: ATP DNA aptamer (quencher-CACCTGGGGGAGTATTGCGGAGGAAGG + anchor), 100 nM annealed; ATP concentration: 500 uM; one replicate.
Procedure, shortened: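 Switching-strand clusters labelled with Cy3 on a modified Illumina MiSeq flow-cell were annealed to 100 nM quencher-labelled ATP aptamer, imaged in selection buffer, and re-imaged after 15 min with 500 uM ATP at 22 °C. This was done over five cycles with NaOH stripping and re-annealing in between. The fluorescence ratio is summed target-cycle over summed buffer-cycle Cy3 intensity per cluster, averaged per switch-domain sequence, excluding clusters outside 100-1000 RFU.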
AGCGAGGCGA showed a switch fluorescence ratio of 1.1. AGCGAGTACT gave a switch fluorescence ratio of 1.2. With AGCGAGTGAG the switch fluorescence ratio was 0.991. For AGCGATATTG, the switch fluorescence ratio was 1.05. With AGCGATGGTG the switch fluorescence ratio was 1.02. Work on AGCGCATCAC yielded a switch fluorescence ratio of 3.46. Sequence AGCGCCAACG has a switch fluorescence ratio of 0.979. Sequence AGCGCCACGG has a switch fluorescence ratio of 1.03. With AGCGCCCTTA the switch fluorescence ratio was 0.988. With AGCGCTAAAC the switch fluorescence ratio was 0.984. For AGCGCTCTGC, the switch fluorescence ratio was 0.965. In the case of AGCGCTTATT, the switch fluorescence ratio is reported as 1.01. In the case of AGCGGAGACG, the switch fluorescence ratio is reported as 1.02. For AGCGGCCCAT, the switch fluorescence ratio was 0.977. Work on AGCGGCCCTG yielded a switch fluorescence ratio of 0.97. For AGCGGCGGGG, the switch fluorescence ratio was 1.04. Work on AGCGGCGTA yielded a switch fluorescence ratio of 1. In the case of AGCGGCGTCA, the switch fluorescence ratio is reported as 1.04. Sequence AGCGGCGTGA has a switch fluorescence ratio of 1.01. AGCGGCTCA gave a switch fluorescence ratio of 1.02. With AGCGGCTCAT the switch fluorescence ratio was 1.03. Work on AGCGGCTTG yielded a switch fluorescence ratio of 0.957. Sequence AGCGGGATCT has a switch fluorescence ratio of 1.02. Sequence AGCGGGATTT has a switch fluorescence ratio of 0.982. In the case of AGCGGTATA, the switch fluorescence ratio is reported as 0.974. In the case of AGCGGTCGAG, the switch fluorescence ratio is reported as 1. With AGCGGTCGCG the switch fluorescence ratio was 0.965. In the case of AGCGGTGACG, the switch fluorescence ratio is reported as 1.06. With AGCGTAATTG the switch fluorescence ratio was 1.04. In the case of AGCGTATGAG, the switch fluorescence ratio is reported as 0.988. In the case of AGCGTCGCA, the switch fluorescence ratio is reported as 1.02. AGCGTGCACG showed a switch fluorescence ratio of 1.03. AGCGTGCCGA was tested, and the switch fluorescence ratio was 1.04. Work on AGCGTGTCGG yielded a switch fluorescence ratio of 1.04. Sequence AGCGTTGACC has a switch fluorescence ratio of 1.01. In the case of AGCTAAGTTC, the switch fluorescence ratio is reported as 0.941. AGCTAATGGC gave a switch fluorescence ratio of 1.03. Work on AGCTACATTG yielded a switch fluorescence ratio of 0.976. For AGCTACGTCC, the switch fluorescence ratio was 1.08. Work on AGCTAGATAG yielded a switch fluorescence ratio of 1.04. Sequence AGCTAGTTGC has a switch fluorescence ratio of 0.994. Work on AGCTATCCGG yielded a switch fluorescence ratio of 0.989. Work on AGCTGAAGT yielded a switch fluorescence ratio of 0.975. For AGCTGCGATT, the switch fluorescence ratio was 1.01. Work on AGCTGGGCAC yielded a switch fluorescence ratio of 1. Sequence AGCTGGGTCG has a switch fluorescence ratio of 1.06. Work on AGCTGGTTGG yielded a switch fluorescence ratio of 0.988. Sequence AGCTGTGCAG has a switch fluorescence ratio of 1.01. For AGCTTAATCT, the switch fluorescence ratio was 0.985. Sequence AGCTTAGACA has a switch fluorescence ratio of 1.01. With AGCTTCAGCC the switch fluorescence ratio was 1. Work on AGCTTGAGCT yielded a switch fluorescence ratio of 1.02. AGCTTGGGAC was tested, and the switch fluorescence ratio was 1.02. AGCTTGGGGC was tested, and the switch fluorescence ratio was 0.993. In the case of AGCTTGTGAC, the switch fluorescence ratio is reported as 1.04. In the case of AGGAAAACTC, the switch fluorescence ratio is reported as 1.02. AGGAAACAC showed a switch fluorescence ratio of 1.03. AGGAAAGAAG was tested, and the switch fluorescence ratio was 1. For AGGAAAGAGC, the switch fluorescence ratio was 1.02. With AGGAAAGGTG the switch fluorescence ratio was 1.28. Work on AGGAAAGGTT yielded a switch fluorescence ratio of 0.984. With AGGAAAGTCG the switch fluorescence ratio was 0.996. AGGAACAGGG showed a switch fluorescence ratio of 1.02. AGGAACCTCT was tested, and the switch fluorescence ratio was 1.02. AGGAACGGCT gave a switch fluorescence ratio of 0.993. Work on AGGAAGCGTG yielded a switch fluorescence ratio of 1.02. AGGAAGGTTC showed a switch fluorescence ratio of 1.03. AGGAAGTCA showed a switch fluorescence ratio of 0.962. AGGAATAGAC gave a switch fluorescence ratio of 1.06. In the case of AGGAATATGC, the switch fluorescence ratio is reported as 0.984. AGGAATCAAC gave a switch fluorescence ratio of 0.964. Work on AGGAATGTAC yielded a switch fluorescence ratio of 1.11. Sequence AGGAATTAG has a switch fluorescence ratio of 1.01. AGGACATAAT showed a switch fluorescence ratio of 1.01. Sequence AGGACCAGCC has a switch fluorescence ratio of 1.14. In the case of AGGACCCAAT, the switch fluorescence ratio is reported as 1.04. AGGACTATGT gave a switch fluorescence ratio of 0.921. Sequence AGGAGACAG has a switch fluorescence ratio of 1.01. AGGAGACAGC was tested, and the switch fluorescence ratio was 1.07. AGGAGAGCCG gave a switch fluorescence ratio of 1.04. Work on AGGAGAGGG yielded a switch fluorescence ratio of 0.957. AGGAGATAGC was tested, and the switch fluorescence ratio was 1.01. With AGGAGCGTA the switch fluorescence ratio was 1.02. For AGGAGGGACC, the switch fluorescence ratio was 0.994. With AGGAGGGTAT the switch fluorescence ratio was 0.981. With AGGAGGTAGT the switch fluorescence ratio was 0.989. Work on AGGAGGTGTG yielded a switch fluorescence ratio of 1. AGGAGT gave a switch fluorescence ratio of 0.995. With AGGAGTGCTC the switch fluorescence ratio was 0.989. Work on AGGAGTGGCT yielded a switch fluorescence ratio of 0.991. Work on AGGAGTGGTT yielded a switch fluorescence ratio of 0.977. In the case of AGGATACCTT, the switch fluorescence ratio is reported as 1.08. AGGATCAGT showed a switch fluorescence ratio of 1.03. For AGGATCCGGC, the switch fluorescence ratio was 1.04. In the case of AGGATCCTGT, the switch fluorescence ratio is reported as 0.982. AGGATGCTTG showed a switch fluorescence ratio of 0.958. Sequence AGGATGTATG has a switch fluorescence ratio of 0.946. In the case of AGGATTAGAG, the switch fluorescence ratio is reported as 1.01. AGGATTATTC gave a switch fluorescence ratio of 0.969. In the case of AGGATTGACG, the switch fluorescence ratio is reported as 1.09. AGGATTGGGA gave a switch fluorescence ratio of 1.02. Work on AGGCAACCTG yielded a switch fluorescence ratio of 1. For AGGCAATGGG, the switch fluorescence ratio was 1.04. With AGGCACAATG the switch fluorescence ratio was 1.01. AGGCACGAAG was tested, and the switch fluorescence ratio was 0.983. Sequence AGGCACTGGA has a switch fluorescence ratio of 1.04. With AGGCAGAGGT the switch fluorescence ratio was 0.984. For AGGCAGGGAC, the switch fluorescence ratio was 1.04. With AGGCCAAAAT the switch fluorescence ratio was 0.946. In the case of AGGCCCAGCA, the switch fluorescence ratio is reported as 1.01. In the case of AGGCCCAGGG, the switch fluorescence ratio is reported as 1.04. With AGGCCCCCAA the switch fluorescence ratio was 1.13. With AGGCCGGGGC the switch fluorescence ratio was 1.02. AGGCCGTGGA gave a switch fluorescence ratio of 1.02. Sequence AGGCCTTTGC has a switch fluorescence ratio of 1.01. In the case of AGGCGAAGG, the switch fluorescence ratio is reported as 0.998. For AGGCGAATTG, the switch fluorescence ratio was 0.963. In the case of AGGCGACACG, the switch fluorescence ratio is reported as 0.989. Work on AGGCGATCGC yielded a switch fluorescence ratio of 0.992. With AGGCGATTCA the switch fluorescence ratio was 1.02. Work on AGGCGGGTCA yielded a switch fluorescence ratio of 1.05. AGGCGGGTTC gave a switch fluorescence ratio of 1.03. In the case of AGGCGTGAGA, the switch fluorescence ratio is reported as 0.972. AGGCGTGAGC gave a switch fluorescence ratio of 1.06. In the case of AGGCTAATGC, the switch fluorescence ratio is reported as 0.979. AGGCTCGCTG was tested, and the switch fluorescence ratio was 0.989. Sequence AGGCTCTTGC has a switch fluorescence ratio of 0.976. In the case of AGGCTGAGTT, the switch fluorescence ratio is reported as 1.04. AGGCTGCCAG was tested, and the switch fluorescence ratio was 0.945. For AGGCTGCTAA, the switch fluorescence ratio was 0.997. In the case of AGGCTTATTA, the switch fluorescence ratio is reported as 0.997. Sequence AGGCTTGTCC has a switch fluorescence ratio of 1.04. AGGCTTTATG gave a switch fluorescence ratio of 1.01. With AGGGAAAACC the switch fluorescence ratio was 1.02. Work on AGGGAAAATA yielded a switch fluorescence ratio of 1.06. For AGGGAACACT, the switch fluorescence ratio was 1.04. With AGGGAAGATC the switch fluorescence ratio was 0.934. In the case of AGGGAAGTGG, the switch fluorescence ratio is reported as 0.991. AGGGAATGAC gave a switch fluorescence ratio of 1.32. With AGGGAATT the switch fluorescence ratio was 0.978. For AGGGACATTT, the switch fluorescence ratio was 0.975. AGGGACCTCA gave a switch fluorescence ratio of 1. AGGGACGCGG showed a switch fluorescence ratio of 0.992. For AGGGACGCTC, the switch fluorescence ratio was 1.03. Sequence AGGGACTCTG has a switch fluorescence ratio of 1.08. AGGGAGCGTG showed a switch fluorescence ratio of 0.965. For AGGGAGCTCA, the switch fluorescence ratio was 1.03. With AGGGAGGGTC the switch fluorescence ratio was 1.01. AGGGATGACA showed a switch fluorescence ratio of 1. AGGGATTTG was tested, and the switch fluorescence ratio was 1. In the case of AGGGC, the switch fluorescence ratio is reported as 1.02. AGGGCAATTC gave a switch fluorescence ratio of 3.29. For AGGGCACAGA, the switch fluorescence ratio was 0.999. In the case of AGGGCAGAAT, the switch fluorescence ratio is reported as 0.988. With AGGGCCAGAG the switch fluorescence ratio was 1. Sequence AGGGCCGGGT has a switch fluorescence ratio of 1.02. Work on AGGGCGGTAG yielded a switch fluorescence ratio of 0.945. For AGGGCTGGT, the switch fluorescence ratio was 0.973. Sequence AGGGGAAATA has a switch fluorescence ratio of 5.6. For AGGGGAATCC, the switch fluorescence ratio was 1.07. Work on AGGGGACTCA yielded a switch fluorescence ratio of 1.02. AGGGGAGCAG gave a switch fluorescence ratio of 0.983. Work on AGGGGAGCTC yielded a switch fluorescence ratio of 1.01. In the case of AGGGGATTTC, the switch fluorescence ratio is reported as 0.965. AGGGGCCTGG was tested, and the switch fluorescence ratio was 1.03. AGGGGCCTTT was tested, and the switch fluorescence ratio was 1. AGGGGGAAC was tested, and the switch fluorescence ratio was 0.968. AGGGGGACAT was tested, and the switch fluorescence ratio was 1.16. AGGGGGGTA was tested, and the switch fluorescence ratio was 0.998. With AGGGGTAGAG the switch fluorescence ratio was 0.935. With AGGGGTAGTC the switch fluorescence ratio was 0.855. AGGGGTCATT showed a switch fluorescence ratio of 1. Sequence AGGGGTGGGC has a switch fluorescence ratio of 0.969. AGGGGTTA showed a switch fluorescence ratio of 1.01. For AGGGTAAGTG, the switch fluorescence ratio was 0.965. Work on AGGGTCCTAT yielded a switch fluorescence ratio of 0.991. AGGGTGGAG gave a switch fluorescence ratio of 1.06. For AGGGTTTTTC, the switch fluorescence ratio was 1.05. AGGTAAAAGC was tested, and the switch fluorescence ratio was 1.02. AGGTACGAGT showed a switch fluorescence ratio of 0.997. AGGTAGGC was tested, and the switch fluorescence ratio was 1.04. AGGTAGGGAG showed a switch fluorescence ratio of 0.982. AGGTATGGGT showed a switch fluorescence ratio of 0.993. Sequence AGGTATTGGC has a switch fluorescence ratio of 1.12. Sequence AGGTATTTCG has a switch fluorescence ratio of 0.962. AGGTCACTCT gave a switch fluorescence ratio of 1. Work on AGGTCAGCGT yielded a switch fluorescence ratio of 1.02. For AGGTCAGTGG, the switch fluorescence ratio was 1.04. AGGTCCAGGG gave a switch fluorescence ratio of 1.14. For AGGTCCGGGG, the switch fluorescence ratio was 1.02. In the case of AGGTCCTGCT, the switch fluorescence ratio is reported as 0.992. AGGTCCTTGC showed a switch fluorescence ratio of 1.17. AGGTCGGTC showed a switch fluorescence ratio of 0.962. In the case of AGGTCTATGG, the switch fluorescence ratio is reported as 0.983. Work on AGGTCTCT yielded a switch fluorescence ratio of 1. AGGTCTGGGT gave a switch fluorescence ratio of 1. In the case of AGGTGCCACT, the switch fluorescence ratio is reported as 0.992. AGGTGGCGGT gave a switch fluorescence ratio of 1.01. Sequence AGGTGGCTCT has a switch fluorescence ratio of 1. For AGGTGGTACT, the switch fluorescence ratio was 1.01. AGGTGTAGCG gave a switch fluorescence ratio of 1.02.
